Hit rate of the full screen: of about 420,000 compounds, about 64,000 (15%) were called active. Inconclusive results, whose numbers are uncertain, are shown with a selection of clear calls. Calls follow the shape of the dose curve; as a rule, active = well fitted inhibition curve with a large enough effect; inconclusive = small, poorly fitted or top-dose-only effect; inactive = flat fitted curve, though single readings scatter. Potencies of inconclusive entries are left out as doubtful fits.
Experiment: qHTS for Inhibitors of human tyrosyl-DNA phosphodiesterase 1 (TDP1): qHTS in cells in absence of CPT; also: nearly all actives have a fitted effect of over 55% in size
Settings: DT40 Tdp1-/- hTDP1 cells, no CPT, ATP luminescence, 48 h; activity change, negative = growth inhibition: at 46.2 µM (top of the series) unless noted
Summary of the method: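 Seeded 400 DT40-hTDP1 cells/well (vehicle DMSO, no 20 nM CPT); pinned compounds; ≥48 hr at 37 °C; CellTiter-Glo luminescence as viability measure.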
% is scaled to controls: 0 for no effect and ±100 for the full control effect; potency is read from the fitted curve at half-maximal effect; tags tell the direction and shape of the fitted curve.

SMILES	Potency	activity change, negative = growth inhibition
CC1(C)CC(=O)C=C(c2ccc(COC(=O)C3CC3)cc2)C1=O	inconclusive [inhibitor, partial curve, poor fit]	–
C=CCSc1nnc(NC(=O)Cc2ccc(OC)c(OC)c2)s1	inactive	–
COCCCNC(=O)c1c(N)n(/N=C/c2cccs2)c2nc3ccccc3nc12	inconclusive [inhibitor, partial curve]	–
COC(=O)c1ccc(/C=C2\SC(=S)N(CCCC(=O)NCCCN3CCOCC3)C2=O)cc1	active: 23.1 µM	–
CCCCCCCCN1C(=O)[C@H](CC(=O)NCCCOCCCC)C[C@@]2(C(=O)OCC)CCCC=C12	active: 16.4 µM	–
COc1ccc(OCc2nnc(SCC(=O)N3CCCc4ccccc43)n2-c2ccc(C)cc2)cc1	inactive	–
COC(=O)C1=C(C)N(c2cccc3ccccc23)C(=O)C1	inconclusive [inhibitor, single point]	–
C[C@H]1CN([C@@H](C)CO)C(=O)CCCn2cc(nn2)CO[C@@H]1CN(C)S(=O)(=O)c1ccc(Oc2ccccc2)cc1	inactive	–
CN(CC(=O)Nc1ccc(Cl)c(C(F)(F)F)c1)C(=O)c1cc(-c2ccncc2)nc2ccccc12	active: 18.4 µM	–
c1ccc(-c2oc3ncnc(NCCCN4CCOCC4)c3c2-c2ccccc2)cc1	active: 23.1 µM	–
COc1cc(/C=N/NC(=S)Nc2cccc(S(=O)(=O)N(C)C)c2)cc(OC)c1O	inconclusive [inhibitor, single point]	–
CCNC(=S)Nc1ccc2c(c1)c(=O)n(C)n2Cc1ccc(Cl)cc1	inconclusive [inhibitor, single point]	–
COc1ccc(C(=O)Oc2cccc(Nc3ncnc4ccccc34)c2)cc1OC	active: 18.4 µM	–
Cc1sc(NC(=O)C2C3CCC(O3)C2C(=O)O)nc1-c1ccc(CC(C)C)cc1 (configuration not stated)	inactive	–
C[C@H](CO)N1C[C@H](C)[C@H](CN(C)Cc2cccc(O)c2)OCc2ccccc2-c2c(n(C)c3ccccc23)C1=O	inconclusive [inhibitor, full curve]	–
COc1ccc(CC(=O)NNC(=S)Nc2ccc(Br)cc2)cc1	inactive	–
CC(/C=C/c1ccccc1)=N\NC(=O)c1ccc(Br)cc1	inconclusive [inhibitor, partial curve, poor fit]	–
Cc1ccc(S(=O)(=O)N2CCCCC2)cc1NC(=O)CCCOc1ccccc1	active: 20.6 µM	–
CCOC(=O)c1cc(-c2ccccc2)n(CC(=O)NC(C)(C)C)c1C	inconclusive [inhibitor, single point]	–
CCc1ccc(NC(=O)CC2C(=O)N(c3ccc(Cl)cc3)C(=O)N2Cc2ccco2)cc1 (configuration not stated)	inconclusive [inhibitor, single point]	–
CCCC[C@@H]1CNC(=O)C(=O)N1CCCCC1CCCCC1	inconclusive [inhibitor, single point]	–
CCn1c(SCC(=O)N/N=C/C=C/c2ccco2)nc2ccccc21	inconclusive [inhibitor, single point]	–
Cc1cccc(NC(=O)c2ccc(Cl)c(S(=O)(=O)N3CCCCC3)c2)n1	inconclusive [inhibitor, single point]	–
O=C(N/N=C/c1c(O)n(-c2ccccc2Cl)c(=O)c2ccccc12)C1COc2ccccc2O1 (configuration not stated)	inconclusive [inhibitor, single point]	–

SMILES	Potency	activity change, negative = growth inhibition
Cc1ccc(C(=O)NCC(=O)N(C)Cc2ccc(Cl)cc2Cl)s1	inconclusive [inhibitor, single point]	–
CCc1ccc(CN2CCc3nc(Nc4ccccc4)ncc3C2)cc1	inconclusive [inhibitor, single point]	–
O=C(CN1C(=O)C2CC=CCC2C1=O)NCC1COc2ccccc2O1 (configuration not stated)	inactive	–
Cc1cccc2sc(N(Cc3cccnc3)C(=O)c3cccs3)nc12	inactive	–
O=[N+]([O-])c1cccc(C(=Nc2ccc(Cl)cc2)NO)c1	inconclusive [inhibitor, partial curve]	–
COc1ccccc1CCNC(=O)c1cc(COc2cccc(C(F)(F)F)c2)on1	inconclusive [inhibitor, single point]	–
Cc1onc(-c2ccccc2)c1C(=O)NNC(=S)NC(=O)/C=C/c1ccccc1	active: 18.4 µM	–
O=C1CCCCC/C1=N/Nc1ccc(OCc2ccccc2)cc1	inconclusive [inhibitor, single point]	–
COc1cccc(C2c3c(-c4ccccc4O)n[nH]c3C(=O)N2Cc2ccco2)c1 (configuration not stated)	inconclusive [inhibitor, single point]	–
CCCCn1nnnc1C(c1cc2ccccc2o1)N(Cc1ccccc1)Cc1ccccc1 (configuration not stated)	active: 18.4 µM	–
COc1ccc(N=Nc2c(C)[nH][nH]c2=O)cc1	–	inconclusive: -33.7% [inhibitor]
Cc1ccc(CN2CCN(Cc3cccc4c3OCO4)CC2CCO)cc1 (configuration not stated)	inconclusive [inhibitor, single point]	–
O=C1C2CC=CCC2C(=O)N1c1ccc(NCCc2ccccc2F)c([N+](=O)[O-])c1 (configuration not stated)	inconclusive [inhibitor, single point]	–
N#Cc1cc([N+](=O)[O-])ccc1NC(=O)COC(=O)CN1C(=O)C2CCCCC2C1=O (configuration not stated)	inactive	–
CCOc1ccccc1C(=O)NC(C)c1ccc2c(c1)OCO2 (configuration not stated)	inconclusive [inhibitor, single point]	–
C/C=C/C=C\C(=O)Nc1cccc(C2=NOC3(C2)C[C@@H](C(N)=O)N(C(=O)c2cc([N+](=O)[O-])cc([N+](=O)[O-])c2C)C3)c1 (some centres not stated)	inconclusive [inhibitor, single point]	–
CC(SCc1ccc(C(=O)O)o1)c1ccc(C(=O)O)o1 (configuration not stated)	inactive	–
CCOc1cc(S(=O)(=O)NCc2ccncc2)ccc1Cl	active: 0.58 µM	–
COc1ccc(OCCC(=O)OCC(=O)NC2CCCCC2)cc1	inactive	–
CCOC(=O)c1c(C)[nH]c(CCC(=O)NCc2ccc(F)cc2)c1C	inconclusive [inhibitor, single point]	–
CC(C)(C)C1CCc2c(sc3nc(-c4cc5cc(Br)ccc5oc4=O)[nH]c(=O)c23)C1 (configuration not stated)	inactive	–
Cc1ccccc1N1C(=O)C2C3C=CC(C2C1=O)N(C)C3=O (configuration not stated)	inactive	–
C=CC[C@@H](CC(=O)N(CCO)Cc1ccccc1)C(=O)N[C@H](COC(=O)[C@@H](CC=C)CC(=O)OC(C)(C)C)C(C)(C)C	inconclusive [inhibitor, single point]	–
CC(=O)Nc1ccc(NC(=O)c2cc3sccc3n2Cc2ccc(F)cc2)cc1	inconclusive [inhibitor, single point]	–

SMILES	Potency	activity change, negative = growth inhibition
CCCNC(=O)C1CC(c2ccccc2[N+](=O)[O-])=NO1 (configuration not stated)	inactive	–
CCCC1=C(C(=O)OCC)C(c2ccc(O)cc2)n2ncnc2N1 (configuration not stated)	inconclusive [inhibitor, full curve, poor fit]	–
O=C1OC(c2cccs2)=N/C1=C/c1ccc(-c2cccc(C(=O)O)c2)o1	inconclusive [inhibitor, single point]	–
O=C(Nc1ccc2oc(=O)ccc2c1)c1ccc(-c2ccccc2[N+](=O)[O-])o1	inconclusive [inhibitor, full curve]	–
Cc1c(NC(=O)C23CC4CC(CC(Br)(C4)C2)C3)c(=O)n(-c2ccccc2)n1C	inactive	–
Oc1[nH]c2ccccc2c1C=Nc1ccc2c(c1)OCCO2	inconclusive [inhibitor, partial curve, poor fit]	–
COc1ccc(S(=O)(=O)N2CCC[C@H]2C(=O)NC2=NCCS2)cc1	inactive	–
COc1ccc(C(=O)NCC(c2ccco2)N2CCc3ccccc32)c(OC)c1 (configuration not stated)	active: 7.31 µM	–
CC(=O)c1cccc(NC(=O)C(C)OC(=O)C2=NNC(=O)CC2)c1 (configuration not stated)	inactive	–
COc1ccccc1CNC(=O)CCCNC(=O)c1ccc(Cl)cc1	inactive	–
O=C(C1CCN(S(=O)(=O)c2cnc[nH]2)CC1)N1CCN(Cc2ccc3c(c2)OCO3)CC1	active: 20.6 µM	–
O=C(CCc1nc2ccccc2s1)Nc1cccnc1	inactive	–
Cc1ccc(/C=N/Nc2cn[nH]c(=O)n2)o1	inactive	–
COc1ccc(C)cc1CN1C(=O)c2ccccc2C1=O	inconclusive [inhibitor, single point]	–
COc1cccc(NC(=O)CSc2nnc(-c3cccc(OC(C)C)c3)n2N)c1	inconclusive [inhibitor, single point]	–
CCCn1c(C)cc(/C=C(\C#N)C(=O)OCC(=O)N(CC)c2c(N)n(Cc3ccccc3)c(=O)[nH]c2=O)c1C	inactive	–
O=c1cnc2ccccc2n1Cc1ccccc1	inconclusive [inhibitor, single point]	–
Cc1noc(C)c1C(=O)N1CCC2(CC1)CCN(c1cccc(-c3ccccc3)c1)CC2	active: 4.61 µM	–
COc1ccccc1N(CC(O)CN1CCC(C)CC1)S(=O)(=O)c1ccccc1 (configuration not stated)	inactive	–
CN1CCN(C(=O)c2ccccc2[N+](=O)[O-])CC1	inactive	–
Cc1ccc(S(=O)(=O)N(C)Cc2nc(-c3ccc(Br)cc3)no2)cc1	active: 18.4 µM	–
Cc1ccc(N=Nc2c(N)[nH]n3c(=O)cc(C)nc23)cc1	active: 14.6 µM	–
CCCN1C(=O)/C(=C\c2ccncc2)SC1=Nc1ccccc1	inconclusive [inhibitor, single point]	–
C=CCn1c(NCCc2ccccc2)nc2c1c(=O)n(C)c(=O)n2C	active: 8.2 µM	–

— PubChem BioAssay AID686978 (National Center for Advancing Translational Sciences (NCATS), 2013)
